Experimental data reported in article PMC8424950.
No constants are given. Whether binding was seen depends on the method and setting. In cells and extracts the contact can be indirect. Some entries that bind do so weakly or less than the wild type. Blank lines part the entries; values can stand above or below the binder they belong to.

Chains of the proteins cited; added tags and fusions are not shown.
UniProt Q8N6T3: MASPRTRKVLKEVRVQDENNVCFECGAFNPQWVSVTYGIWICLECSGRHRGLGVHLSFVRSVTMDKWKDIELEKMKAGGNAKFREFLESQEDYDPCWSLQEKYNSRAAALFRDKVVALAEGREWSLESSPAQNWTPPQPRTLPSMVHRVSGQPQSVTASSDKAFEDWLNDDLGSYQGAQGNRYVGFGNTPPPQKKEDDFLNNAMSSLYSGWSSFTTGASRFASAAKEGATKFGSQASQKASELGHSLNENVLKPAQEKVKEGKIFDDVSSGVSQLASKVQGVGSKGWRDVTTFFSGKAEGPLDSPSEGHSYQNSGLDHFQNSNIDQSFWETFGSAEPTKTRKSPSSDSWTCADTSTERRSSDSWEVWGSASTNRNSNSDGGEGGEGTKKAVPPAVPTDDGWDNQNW
UniProt Q9NP61: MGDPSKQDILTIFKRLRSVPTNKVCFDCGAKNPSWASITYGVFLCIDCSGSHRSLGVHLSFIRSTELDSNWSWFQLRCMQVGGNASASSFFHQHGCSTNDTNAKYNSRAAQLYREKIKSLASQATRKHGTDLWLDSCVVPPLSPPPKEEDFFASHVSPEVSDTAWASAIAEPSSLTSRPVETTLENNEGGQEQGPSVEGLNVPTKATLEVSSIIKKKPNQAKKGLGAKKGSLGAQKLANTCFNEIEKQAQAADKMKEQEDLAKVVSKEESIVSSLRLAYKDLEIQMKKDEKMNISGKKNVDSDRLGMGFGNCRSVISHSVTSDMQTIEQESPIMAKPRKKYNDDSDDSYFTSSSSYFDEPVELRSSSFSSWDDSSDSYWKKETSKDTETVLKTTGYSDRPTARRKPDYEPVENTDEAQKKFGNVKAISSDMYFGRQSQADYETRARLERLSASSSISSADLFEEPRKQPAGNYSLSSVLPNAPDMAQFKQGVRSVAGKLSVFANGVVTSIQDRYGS
UniProt Q9H3P7: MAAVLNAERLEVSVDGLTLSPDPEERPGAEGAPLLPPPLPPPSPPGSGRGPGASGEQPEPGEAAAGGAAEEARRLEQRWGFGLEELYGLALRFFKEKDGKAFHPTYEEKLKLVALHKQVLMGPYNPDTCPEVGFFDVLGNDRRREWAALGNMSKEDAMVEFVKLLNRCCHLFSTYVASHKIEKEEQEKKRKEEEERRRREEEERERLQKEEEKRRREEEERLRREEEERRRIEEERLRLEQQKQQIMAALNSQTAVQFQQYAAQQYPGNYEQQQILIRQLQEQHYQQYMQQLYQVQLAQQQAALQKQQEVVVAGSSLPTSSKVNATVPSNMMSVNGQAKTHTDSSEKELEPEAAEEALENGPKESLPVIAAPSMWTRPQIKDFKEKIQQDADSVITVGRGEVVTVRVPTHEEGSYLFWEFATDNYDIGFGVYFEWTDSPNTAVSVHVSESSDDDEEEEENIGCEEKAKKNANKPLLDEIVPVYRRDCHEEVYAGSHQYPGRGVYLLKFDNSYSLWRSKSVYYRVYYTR

What was measured:
KDELR1-mCherry (human) = biological target: T1, KDELR1-mCherry (human) (UniProt P24390); assay: co-IP; anti-RFP agarose beads, 4 h at 4°C, on lysates (20 mM HEPES pH 7.4, 100 mM NaCl, 2 mM DDM + 0.02% CHS) of HeLa cells with KDELR1-mCherry or endogenously tagged KDELR1-3xFlag-mCherry; western blot; also done with ACBD3-depleted, ACBD3-KO and ACBD3 over-expressing cells
T1 sequence: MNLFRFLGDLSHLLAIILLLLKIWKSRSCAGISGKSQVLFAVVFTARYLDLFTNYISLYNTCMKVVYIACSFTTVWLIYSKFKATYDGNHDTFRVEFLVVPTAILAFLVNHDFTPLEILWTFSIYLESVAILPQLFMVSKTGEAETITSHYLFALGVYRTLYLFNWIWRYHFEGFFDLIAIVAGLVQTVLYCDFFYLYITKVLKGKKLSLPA

ArfGAP1-myc (human) = ArfGAP1-myc (human) (UniProt Q8N6T3); assay: co-IP; myc-trap agarose beads on lysates of HeLa co-transfected with KDELR1-mCherry and myc-ACBD3, ARFGAP1-myc or ARFGAP3-myc; western blot
ArfGAP3-myc (human) = ArfGAP3-myc (human) (UniProt Q9NP61); assay: as above
myc-ACBD3 (human) = myc-ACBD3 (human) (UniProt Q9H3P7); assay: as above

binding (KDELR1-mCherry (human)): binds
B1: Golgin160 (endogenous) (protein, UniProt Q08378 1-1498)
chain: MDGASAEQDGLQEDRSHSGPSSLPEAPLKPPGPLVPPDQQDKVQCAEVNRASTEGESPDGPGQGGLCQNGPTPPFPDPPSSLDPTTSPVGPDASPGVAGFHDNLRKSQGTSAEGSVRKEALQSLRLSLPMQETQLCSTDSPLPLEKEEQVRLQARKWLEEQLKQYRVKRQQERSSQPATKTRLFSTLDPELMLNPENLPRASTLAMTKEYSFLRTSVPRGPKVGSLGLPAHPREKKTSKSSKIRSLADYRTEDSNAGNSGGNVPAPDSTKGSLKQNRSSAASVVSEISLSPDTDDRLENTSLAGDSVSEVDGNDSDSSSYSSASTRGTYGILSKTVGTQDTPYMVNGQEIPADTLGQFPSIKDVLQAAAAEHQDQGQEVNGEVRSRRDSICSSVSLESSAAETQEEMLQVLKEKMRLEGQLEALSLEASQALKEKAELQAQLAALSTKLQAQVECSHSSQQRQDSLSSEVDTLKQSCWDLERAMTDLQNMLEAKNASLASSNNDLQVAEEQYQRLMAKVEDMQRSMLSKDNTVHDLRQQMTALQSQLQQVQLERTTLTSKLKASQAEISSLQSVRQWYQQQLALAQEARVRLQGEMAHIQVGQMTQAGLLEHLKLENVSLSQQLTETQHRSMKEKGRIAAQLQGIEADMLDQEAAFMQIQEAKTMVEEDLQRRLEEFEGERERLQRMADSAASLEQQLEQVKLTLLQRDQQLEALQQEHLDLMKQLTLTQEALQSREQSLDALQTHYDELQARLGELQGEAASREDTICLLQNEKIILEAALQAAKSGKEELDRGARRLEEGTEETSETLEKLREELAIKSGQVEHLQQETAALKKQMQKIKEQFLQQKVMVEAYRRDATSKDQLISELKATRKRLDSELKELRQELMQVHGEKRTAEAELSRLHREVAQVRQHMADLEGHLQSAQKERDEMETHLQSLQFDKEQMVAVTEANEALKKQIEELQQEARKAITEQKQKMRRLGSDLTSAQKEMKTKHKAYENAVGILSRRLQEALAAKEAADAELGQLRAQGGSSDSSLALHERIQALEAELQAVSHSKTLLEKELQEVIALTSQELEESREKVLELEDELQESRGFRKKIKRLEESNKKLALELEHEKGKLTGLGQSNAALREHNSILETALAKREADLVQLNLQVQAVLQRKEEEDRQMKHLVQALQASLEKEKEKVNSLKEQVAAAKVEAGHNRRHFKAASLELSEVKKELQAKEHLVQKLQAEADDLQIREGKHSQEIAQFQAELAEARAQLQLLQKQLDEQLSKQPVGNQEMENLKWEVDQKEREIQSLKQQLDLTEQQGRKELEGLQQLLQNVKSELEMAQEDLSMTQKDKFMLQAKVSELKNNMKTLLQQNQQLKLDLRRGAAKTRKEPKGEASSSNPATPIKIPDCPVPASLLEELLRPPPAVSKEPLKNLNSCLQQLKQEMDSLQRQMEEHALTVHESLSSWTPLEPATASPVPPGGHAGPRGDPQRHSQSRASKEGPGE

binding (ArfGAP1-myc (human)): binds
binding (ArfGAP3-myc (human)): binds
binding (myc-ACBD3 (human)): binds
B2: KDELR1-mCherry (receptor, UniProt P24390 1-212)
chain: T1 sequence
